Results reported in PubChem BioAssay AID1347120 (National Center for Advancing Translational Sciences (NCATS), 2019).
Hit rate of the full screen: of about 390,000 compounds, about 930 (0.24%) were called active. The shares of active, inactive and inconclusive entries below differ from those in the screen. Calls come from the whole dose curve; as a rule, active = well fitted activation curve with a large enough effect; inconclusive = small, poorly fitted or top-dose-only effect; inactive = no such curve, though single readings can be large or run the other way. Potencies beside an inconclusive call are fits to weak or partial responses and may not hold up.

assay: qHTS for Suppressors of FUS Proteinopathy: Primary screen using FUS-linked yeast assay; note: nearly all actives have a fitted effect of over 55% in size;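 for growth rescue (activation): plate controls were DMSO vehicle for no effect and reference control for full effect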; details: S. cerevisiae FUS-expressing, OD600, 24 h; Potency: growth rescue; growth rescue (activation): at 76.6 µM (top of the series)
Method in brief: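 Yeast expressing FUS under galactose induction, OD 0.005 in 2% galactose medium; compounds in a dilution series, 24 h at 30C. Growth rescue by absorbance at 600 nm; CP55940 positive control, DMSO negative.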
Potency is the fitted concentration of half-maximal effect; tags give direction and shape of the fitted curve.

Row | Compound | growth rescue (activation) | Potency
1 | CCOC(=O)c1ccccc1NC(=S)N1CC(C)CC(C)C1 (configuration not stated) | inactive: -0.903% | –
2 | Cc1cc(O)ccc1Nc1nc(-c2sc(N)nc2C)cs1 | – | inconclusive: 17.8 µM [activator, partial curve]
3 | COC(=O)[C@]12C[C@H](CC(=O)N3CCN(C(=O)C4CC4)CC3)C(=O)N(CCc3ccc(OC)c(OC)c3)C1=C[C@H](C1CCCC1)O[C@@H]2C | – | inconclusive: 22.4 µM [activator, partial curve, poor fit]
4 | CC(C)CC(=O)Nc1ccc(Nc2ccccc2)cc1 | – | inconclusive: 1 µM [activator, partial curve, poor fit]
5 | CN(C(=O)c1cccc(NC(=O)Cc2ccc(NC(=O)C3CCN(S(=O)(=O)c4cccc([N+](=O)[O-])c4)CC3)cc2)c1)C1CCC1 | – | inconclusive: 12.6 µM [activator, partial curve, poor fit]
6 | COC(=O)[C@]12CCCCC=C1N(Cc1cccc3ccccc13)C(=O)[C@H](CC(=O)NCc1cccc(C(F)(F)F)c1)C2 | – | inconclusive: 12.6 µM [activator, partial curve, poor fit]
7 | COc1ccc(N(C(=O)CCC(=O)Nc2cc(C)on2)C(C(=O)NC2CCCC2)c2ccco2)cc1 (configuration not stated) | inactive: 23.1% | –
8 | COc1ccc(-n2c(SCC(=O)Nc3ccccc3)nc3c(c2=O)SCC3)cc1 | – | inconclusive: 39.8 µM [activator, single point]
9 | COc1cc(OC)c(NC(=O)CCc2nc(-c3cccs3)no2)cc1Cl | inactive: 38.3% | –
10 | CN(C)c1ccc(C(=O)C(=O)N2CCN(c3ccccc3)CC2)cc1 | inactive: 4.42% | –
11 | C#CCN(C[C@@H]1[C@@H](OC(=O)NCc2ccccc2F)[C@@H](OC(=O)NCc2ccccc2F)Cn2c(=O)n(CCCCCC)c(=O)n21)S(=O)(=O)c1ccc(C)cc1 | – | inconclusive: 28.2 µM [activator, partial curve]
12 | COc1ccc(Cl)cc1NC(=O)CN(c1cccc(C)c1C)S(C)(=O)=O | – | inconclusive: 25.1 µM [activator, partial curve]
13 | O=C(CCCCCn1c(=O)[nH]c2ccccc2c1=O)NCCc1ccccc1 | inactive: 9.85% | –
14 | O=C(CSc1nc2ccccc2o1)Nc1ccccc1N1CCOCC1 | inactive: -10.7% | –
15 | O=C(CSc1nnc(COc2ccccc2)n1-c1ccc(Cl)cc1)Nc1ccccc1-c1ccccc1 | – | inconclusive: 10 µM [activator, partial curve]
16 | O=C(NCc1cccc(Cl)c1)c1cnc(N2CCCCC2)c2ccccc12 | – | inconclusive: 50.1 µM [activator, single point]
17 | C[C@H]1Cn2nnc(-c3ccccc3)c2Cn2c3ccccc3c(=O)n21 | – | inconclusive: 31.6 µM [activator, single point]
18 | COc1ccc(-c2oc3ccc(-c4ccc(OC)nc4)cc3c2C#CC2(O)CCCCC2)cc1 | – | inconclusive: 28.2 µM [activator, single point]
19 | CCCCOCCCNC(=O)C[C@@H]1C[C@@]2(C(=O)OCC)CCC=C2N(Cc2cccc3ccccc23)C1=O | – | inconclusive: 31.6 µM [activator, single point]
20 | Cc1ccc(-n2ncc(C(=O)NCCc3ccsc3)c2C2CCN(C(=O)OC(C)(C)C)CC2)c(C)c1 | – | inconclusive: 20 µM [activator, partial curve, poor fit]
21 | COC(=O)c1cccc(Nc2c(-c3ccc(SC)cc3)nc3nc[nH]n23)c1 | – | inconclusive: 50.1 µM [activator, single point]

Row | Compound | growth rescue (activation) | Potency
22 | O=C(CSCc1ccc(F)cc1)N1CCN(c2ccc(Cl)cc2)CC1 | – | inconclusive: 35.5 µM [activator, single point]
23 | CC(c1ccc2ccccc2c1)c1ccccc1C(=O)O (configuration not stated) | inactive: -8.54% | –
24 | COc1cccc(C(=O)CSc2nnnn2C2CCCCC2)c1 | – | inconclusive: 31.6 µM [activator, single point]
25 | COc1cc(/C=C/C(=O)OCC(=O)Nc2cc(S(=O)(=O)N3CCOCC3)ccc2Cl)cc(OC)c1OC | – | inconclusive: 11.2 µM [activator, partial curve, poor fit]
26 | CCOc1ccc2nc(SCC(=O)Nc3cccc(S(=O)(=O)NC4=NCCCCC4)c3)[nH]c2c1 | – | inconclusive: 44.7 µM [activator, partial curve, poor fit]
27 | COc1ccc(-c2ccc3[nH]c4c(c3c2)CCN2C(=O)[C@@H]([C@H](C)O)[C@@H](N(C)C(=O)Nc3ccccc3)C[C@@H]42)cc1 | – | inconclusive: 50.1 µM [activator, single point]
28 | CCOC(=O)CSc1ccc(-c2nc3ccccc3[nH]2)cn1 | inactive: 4.82% | –
29 | Cn1c(NCC(O)c2ccccc2)nc2c1c(=O)n(Cc1ccc(Cl)c(Cl)c1)c(=O)n2C (configuration not stated) | – | active: 8.91 µM
30 | Cc1cc(C)cc(NS(=O)(=O)c2ccc3[nH]cc(C(=O)NC4CCCCC4)c(=O)c3c2)c1 | – | inconclusive: 28.2 µM [activator, single point]
31 | CCOc1ccc(-c2cc(C(=O)NCc3ccccc3Cl)c3ccccc3n2)cc1 | inactive: 21.6% | –
32 | COc1ccc(Nc2nc3cc(-c4ccsc4)sc3c(=O)n2C)cc1OC | – | active: 28.2 µM
33 | Nc1nonc1-n1nnc(C(=O)N/N=C/c2ccc(OCc3ccccc3)cc2)c1CN1CCCCC1 | inactive: 2.59% | –
34 | COc1ccc(-c2n[nH]c(=S)n2-c2ccccc2C)cc1 | inactive: 6.28% | –
35 | Clc1ccc2ncc(-c3nnnn3-c3ccccc3)c(-c3ccccc3)c2c1 | – | inconclusive: 39.8 µM [activator, single point]
36 | O=C(Nc1ccccc1)c1nnsc1S(=O)c1ccc(Cl)cc1 (configuration not stated) | inactive: 18.6% | –
37 | Cc1ccc(C)c(C2=CSC3=NCCN23)c1 | – | inconclusive: 2.82 µM [activator, partial curve, poor fit]
38 | CN(C)C(CNC(=O)c1ccco1)c1cccs1 (configuration not stated) | inactive: 6.2% | –
39 | C=CC[C@@H](CC(=O)N(CCO)Cc1ccccc1)C(=O)N[C@@H](COC(=O)[C@H](CC=C)CC(=O)OC(C)(C)C)Cc1c[nH]c2ccccc12 | – | inconclusive: 12.6 µM [activator, partial curve]
40 | C=Cc1cccc(NC(=O)COc2ccccc2)c1 | inactive: -9.78% | –
41 | O=C(OCc1cc(=O)n2nc(C3CCCCC3)sc2n1)c1ccccc1Cl | inactive: 0.194% | –
42 | CC(=O)c1cccc(S(=O)(=O)NCC(c2ccco2)N2CCCCC2)c1 (configuration not stated) | – | inconclusive: 39.8 µM [activator, partial curve, poor fit]

Row | Compound | growth rescue (activation) | Potency
43 | Cc1ccc(S(=O)(=O)N(CC(=O)Nc2cccc(N(C)S(C)(=O)=O)c2)c2ccc(Cl)c(Cl)c2)cc1 | – | inconclusive: 35.5 µM [activator, single point]
44 | CCCCCCNC(=O)CC(NS(=O)(=O)c1ccc(NC(C)=O)cc1)C(C)C (configuration not stated) | – | inconclusive: 39.8 µM [activator, partial curve, poor fit]
45 | O=C(CCn1c2c(c3ccccc31)CCCC2)NNC(=O)c1ccc([N+](=O)[O-])cc1 | – | inconclusive: 22.4 µM [activator, partial curve, poor fit]
46 | Cc1ccc(CNC(=O)CN(c2cccc(C)c2C)S(=O)(=O)c2ccccc2)cc1 | – | inconclusive: 50.1 µM [activator, single point]
47 | CON(C)c1nc(OCCNC(=O)OCc2ccc(Cl)cc2C)nc(N(C)C)n1 | – | inconclusive: 22.4 µM [activator, partial curve, poor fit]
48 | COCCNC(=O)C1CCCN(C(=O)COc2ccc(Cl)cc2Cl)CC1 (configuration not stated) | inactive: -15.2% | –
49 | CCC(CC)C(=O)Nc1ccc2nc(SCC(=O)N3CCc4ccccc43)sc2c1 | – | inconclusive: 35.5 µM [activator, single point]
50 | CC(C)(C)[C@@H]1COC(=O)[C@H](Cc2ccc(F)cc2)C/C=C\C[C@H](CC(=O)N(CCO)Cc2ccccc2)C(=O)N1 | – | inconclusive: 35.5 µM [activator, single point]
51 | Cn1c2ccccc2c2cnn(CC(=O)N3CCN(c4cccc(C(F)(F)F)c4)CC3)c(=O)c21 | inactive: -10.9% | –
52 | C[C@@H]1CN([C@H](C)CO)C(=O)c2cc(NC(=O)Nc3ccc(F)cc3)ccc2O[C@@H](C)CCCCO[C@H]1CN(C)S(=O)(=O)c1cccs1 | – | inconclusive: 20 µM [activator, partial curve, poor fit]
53 | CCOc1ccc(C(=O)Nc2cccc(NC(=O)c3ccc(C(C)(C)C)cc3)c2)cc1Br | inactive: 41.6% | –
54 | Cc1ccc(NC(=O)CN2C(=O)COc3ccc(S(=O)(=O)NC4CCCC4)cc32)cc1Cl | inactive: -12.9% | –
55 | Cc1sc(NC(=O)c2ccco2)nc1-c1ccc2c(c1)CC(C)N2C(=O)C1CC1 (configuration not stated) | – | inconclusive: 28.2 µM [activator, partial curve, poor fit]
56 | O=C(NCc1ccccc1)C(c1ccccc1)n1c(=O)c(-c2cc3ccccc3[nH]2)nc2ccccc21 (configuration not stated) | – | inconclusive: 28.2 µM [activator, partial curve, poor fit]
57 | COC(=O)c1cccc(NC(=O)NC23CC4CC(CC(C4)C2)C3)c1 | inactive: 5.67% | –
58 | Cc1nn(-c2ccccc2)c2nc(-c3ccncc3)cc(C(=O)NCc3ccco3)c12 | – | inconclusive: 39.8 µM [activator, single point]
59 | CC(C)(C)c1ccc(OCC(=O)NNC(=S)NC(=O)c2ccccc2[N+](=O)[O-])c(Br)c1 | inactive: 31% | –
60 | O=C(/C=C/c1ccccc1)Nc1cccc(C(=O)NCCCc2ccccc2)c1 | inactive: -3.28% | –
61 | CCOC(=O)C1CCN(C(=O)Cn2ncc3c4ccccc4n(Cc4ccc(F)cc4)c3c2=O)CC1 | – | inconclusive: 35.5 µM [activator, single point]
62 | CCC(C)[C@H](NC(=O)[C@@H]1Cc2c([nH]c3ccccc23)C2c3ccccc3C(=O)N21)C(=O)NCC1CCCO1 (some centres not stated) | – | inconclusive: 35.5 µM [activator, single point]
